Measurements reported in the supplement of paper PMC3334620.
In all, about 33,000 sequences were measured (“E-score (-0.5 to 0.5)”: median about -0.04, highest 2% from about 0.36 on). The list shows a part of the results.

molecular target: T1, Hmlalpha2 (UniProt P0CY09); test: PBM E-score (8-mer binding enrichment) (E-score (-0.5 to 0.5)); higher = stronger / more preferred TF binding; most listed sequences are background and not binding sites; conditions: protein concentration: 200 nM; construct: GST-full length
T1 sequence: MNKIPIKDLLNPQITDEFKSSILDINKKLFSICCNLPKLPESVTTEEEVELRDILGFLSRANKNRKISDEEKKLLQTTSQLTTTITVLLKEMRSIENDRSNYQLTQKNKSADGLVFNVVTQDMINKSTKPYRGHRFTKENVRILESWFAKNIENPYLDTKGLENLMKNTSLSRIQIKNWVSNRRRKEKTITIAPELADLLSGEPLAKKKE
Procedure, shortened: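 The E-score, a modified Wilcoxon-Mann-Whitney statistic, was computed by the Universal PBM Analysis Suite for every ungapped eight-base word pooled with its reverse complement. Scans behind it were normalised with masliner after bound GST-tagged yeast transcription factors were detected with fluorescent anti-GST. The proteins, at about 100-200 nM, had been applied to universal all-10-mer Agilent arrays made double-stranded by primer extension.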

| Sequence | PBM E-score |
| --- | --- |
| CTTTAAGC | -0.0889 |
| ACGGGGCC | -0.27 |
| AATACTAG | 0.21 |
| CGACCAAC | 0.0667 |
| GGGAACAC | 0.05 |
| AAGATCTC | 0.0109 |
| GATGGAGA | -0.167 |
| CTCAGCTC | -0.277 |
| CCTCCCTA | -0.229 |
| GAGGAAGC | -0.231 |
| ATGACAGC | -0.00948 |
| ACTCCCGG | -0.199 |
| CAGATGTC | -0.114 |
| AAGTCACT | 0.055 |
| CACACGTC | 0.166 |
| AACGGAGC | -0.165 |
| GGCTGCCA | -0.224 |
| CCCCGTAC | -0.197 |
| GGCAACAA | 0.0607 |
| AGAGATTC | -0.0365 |
| AGATCTGG | -0.17 |
| AATTCCGA | 0.101 |
| GAGATCCA | -0.2 |
| GACAATGC | 0.14 |
| CGCGATCC | -0.0112 |

| Sequence | PBM E-score |
| --- | --- |
| TAGTTATA | 0.228 |
| GTCAATTA | 0.183 |
| ACGGTGCG | 0.134 |
| ACACGAAA | 0.315 |
| ACCGCCGA | -0.134 |
| CTTACAAA | 0.232 |
| GTCACTGA | -0.154 |
| CATCTTCG | -0.0677 |
| ATTTCACA | 0.233 |
| TATTGTCA | 0.104 |
| ATTCTGAG | -0.145 |
| ACATGCCT | 0.3 |
| AAACAAGA | 0.179 |
| AGGACTTC | -0.198 |
| GTGCGAAA | 0.0475 |
| GTGGAAAA | 0.101 |
| AGACCACG | -0.192 |
| CAAAACCC | 0.0242 |
| AGTAGCAA | 0.142 |
| AGACCCAA | -0.164 |
| CGCGCCAC | -0.045 |
| CACTCATC | -0.0518 |
| CCAGCGTC | -0.395 |
| AGCAGCGC | -0.0627 |
| GGTGAGTA | 0.135 |

| Sequence | PBM E-score |
| --- | --- |
| CCTTCGAG | -0.292 |
| GATTTTTA | 0.0837 |
| CCGGCGTA | 0.0423 |
| GATAGCCC | -0.16 |
| AACGTGCA | 0.172 |
| CATCTGGA | -0.164 |
| CTGCGAAA | 0.0491 |
| ACGACTCT | -0.052 |
| CGATCACC | -0.17 |
| CTGTAGTA | 0.306 |
| AGCTGACT | -0.193 |
| AGCACTAG | -0.0442 |
| GTTCATCA | 0.12 |
| GCAGATAC | -0.0462 |
| CTGATATA | 0.143 |
| CCGGGTAA | 0.048 |
| GACTACCA | -0.0886 |
| CGAGCCCC | -0.261 |
| GAGGCTGC | -0.178 |
| CTGTATCA | 0.0319 |
| GAAGAATC | -0.255 |
| CAGTTCGA | 0.136 |
| CACTCTGA | -0.0277 |
| AGTGGGAA | -0.0766 |
| ATTGTTGG | 0.151 |

| Sequence | PBM E-score |
| --- | --- |
| CGATACCA | 0.00773 |
| CCAATAGA | -0.042 |
| AACCGTGC | 0.0444 |
| ACATTCTA | 0.244 |
| CTGACTAA | 0.0106 |
| CGGTAGCC | -0.00427 |
| GGGTATAA | -0.128 |
| AGACGACT | -0.144 |
| GGATATCC | 0.0594 |
| GAATATCC | -0.134 |
| CACATTAG | -0.078 |
| ATTGCTAA | 0.0929 |
| CGGAACTA | -0.0737 |
| AGCAGTAG | -0.23 |
| AATGGTCC | -0.129 |
| CCGCCTAG | -0.214 |
| GTAGCTAC | 0.126 |
| AGACCAGA | -0.231 |
| AAGCGCAA | 0.0467 |
| GATCCGCC | -0.0473 |
| AGGGAGGA | -0.232 |
| ACTGTGGA | -0.139 |
| ATTCCCTG | -0.0261 |
| GTCGAGCA | -0.118 |
| CGCCTGAC | -0.0583 |

| Sequence | PBM E-score |
| --- | --- |
| ATCTGCGA | -0.0862 |
| CCCGATCG | -0.134 |
| ATGGAGTC | -0.0783 |
| GAACTGCC | -0.264 |
| GACCGATA | -0.213 |
| CGGTGGAA | -0.124 |
| AACTTAAG | 0.0471 |
| CAAGTCAG | -0.157 |
| GAAGATAA | 0.242 |
| AGGGAAAG | -0.0927 |
| ACGCAACT | 0.117 |
| CTTGGATC | -0.157 |
| CTAGGCAA | -0.126 |
| ATACATTC | 0.296 |
| ACAAGAGA | 0.116 |
| AATGACAG | -0.085 |
| GACTTGCC | -0.294 |
| CTCTGTCC | -0.0998 |
| CATCACGA | 0.0466 |
| AATGACTC | -0.073 |
| CCCCTGCA | -0.0928 |
| GACATCAC | 0.0654 |
| CAATGGCC | -0.249 |
| CAGTGGGC | -0.221 |
| CGGGTGCA | -0.263 |

| Sequence | PBM E-score |
| --- | --- |
| GTAACTAA | 0.163 |
| CATTGGAG | -0.13 |
| CAAACGCA | 0.149 |
| CATCTAAC | 0.00439 |
| CGGTGCTA | -0.273 |
| CATATTGA | 0.101 |
| AGCCCGGA | -0.327 |
| ACGGACCC | -0.295 |
| ACGTAAAT | 0.376 |
| AGAGACAC | 0.00397 |
| AGAAAACT | 0.185 |
| GCGAACCC | -0.103 |
| CCATGTCC | -0.00972 |
| CTGGGTCC | -0.211 |
| AATGTCGT | 0.23 |
| CGAACGTA | 0.122 |
| GGCCGCAA | -0.165 |
| ACACTAAA | 0.202 |
| AGCGCGTC | -0.00218 |
| GCAGCACC | -0.183 |
| CGTTAGAA | 0.0666 |
| ACTTCCTA | -0.0845 |
| TGATTTAA | 0.211 |
| GCAATTGC | -0.0549 |
| AAAGTCTC | -0.181 |

| Sequence | PBM E-score |
| --- | --- |
| ACAGCGAG | 0.0402 |
| CCACGTGA | -0.0869 |
| ACCGAAAA | 0.145 |
| ATATAGGC | -0.102 |
| CAACAAGC | 0.304 |
| AACCTTAA | 0.0676 |
| GGGGCTAA | -0.207 |
| GGGTGCTA | -0.0803 |
| AGTGCTAA | -0.106 |
| TACCTCCA | -0.0164 |
| ACACTACC | 0.0426 |
| GTCAGCCA | -0.237 |
| AGGGATTG | -0.194 |
| GCGCGGTA | 0.0518 |
| ATTTGGAG | -0.15 |
| GAGACGTA | 0.0981 |
| TCTGAGCA | -0.0476 |
| ACCCTATC | -0.235 |
| CCTATTTC | 0.0862 |
| CGTACTCC | -0.00105 |
| CCTGTATA | 0.0463 |
| ACATTAAA | 0.282 |
| AGTCATAT | 0.0645 |
| ACCGATCG | -0.0666 |
| AAGCTTAG | 0.125 |

| Sequence | PBM E-score |
| --- | --- |
| CGACAGGA | 0.0472 |
| ATCGCACA | 0.0248 |
| CATGCACA | 0.206 |
| GCGCATGA | -0.252 |
| CAACCCTG | 0.0973 |
| ACCTACGT | 0.161 |
| GGGACTTA | -0.128 |
| CTACGAAG | -0.0712 |
| AGCATCCG | 0.0084 |
| ATGCTCTG | -0.166 |
| CCTCTCGA | -0.18 |
| CAATGTTC | 0.0235 |
| GGATTGTA | 0.106 |
| ACGGCGCC | -0.211 |
| AACGTGGG | -0.0455 |
| TCCGATAA | -0.244 |
| AGTGGATA | -0.0729 |
| GAGTATGA | 0.105 |
| ACTATTGA | 0.0542 |
| CGGGGGAG | -0.385 |
| TGCACTAA | 0.143 |
| AGATTCGG | 0.0704 |
| AGCACATC | -0.136 |
| GACGGATA | -0.056 |
| ATCGCTTA | -0.0705 |

| Sequence | PBM E-score |
| --- | --- |
| GTCGTTAA | 0.209 |
| CACTAGTG | -0.11 |
| CATTATGA | -0.097 |
| AGCCCCTC | -0.288 |
| CCCAAAAC | 0.154 |
| CCAGCTTC | -0.101 |
| CGCACTAC | 0.00519 |
| CCCCTACG | -0.423 |
| CACGGTAG | -0.0692 |
| CAAGGATA | 0.00467 |
| ACCACTTG | 0.0313 |
| TAATTATA | 0.245 |
| CTGAATAA | 0.0222 |
| GGCGAAGA | -0.227 |
| AGACGGGG | -0.297 |
| ATAACCCC | -0.142 |
| CAGTACTA | -0.00155 |
| CCGTGTAC | 0.422 |
| ACCAAGGA | -0.169 |
